# Laboratory results from PubChem BioAssay (NCATS).
# Inconclusive means that the source gave no clear call. Such entries were picked first, then a sample of the others. A potency beside an inconclusive call is a rough fit, not a confirmed value. The source made the active and inactive calls. The call rests on the fitted dose curve; in most records, active means well fitted cell-killing curve with a large enough effect; inconclusive means small, poorly fitted or top-dose-only effect, or effect the other way; inactive means flat fitted curve, though single readings scatter.
# System: Tov-21-G
# Assay: Primary qHTS to identify gynecologic anti-cancer compounds using libraries of approved drugs and bioactive compounds (AID 1345084); further: nearly all actives have a fitted effect of over 55% in size
# Conditions: Gynecologic cancer cell panel viability, ATPlite luminescence, 48 h; activity change, negative = cytotoxicity: at 57.5 µM (top of the series) unless noted
# In short: (§1)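 Five-point cytotoxicity, 48 h drug exposure at 37 C, 5% CO2, on cells seeded 16 h beforehand. ATP content read by ATPlite luminescence.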
# On the % scale 0 is the no-effect control and ±100 the full control effect; potency means the concentration at half of the fitted maximal effect; tags describe the fitted curve by direction and shape.
Structure (SMILES),Potency,"activity change, negative = cytotoxicity"
CC1(C)C2CC(OC3OC(COC4OCC(O)(CO)C4O)C(O)C(O)C3O)C1(C)CC2O (stereo unspecified),"inconclusive: 3.16 µM [cytotoxic, single point]",–
NC(=O)c1ccccc1Nc1ccnc(Nc2cccc(O)c2)n1,"inconclusive: 5.62 µM [cytotoxic, partial curve]",–
O=C(Nc1nc2cc(C(F)(F)F)cc(NC3CC3)n2n1)c1cccnc1,"inconclusive: 14.1 µM [cytotoxic, partial curve]",–
CC(=O)OC[C@H]1O[C@@H](n2ncc(=O)[nH]c2=O)[C@H](OC(C)=O)[C@@H]1OC(C)=O,"inconclusive: 11.2 µM [cytotoxic, partial curve, poor fit]",–
CC(C)(C)Nc1nc(Nc2ccc(C(N)=O)cc2)cc(N)c1C#N,"inconclusive: 25.1 µM [cytotoxic, single point]",–
O=C(NCc1ccc(Oc2ccccc2)cc1)c1nc(-c2cc(Br)c(O)c(Br)c2)no1,–,inactive: 10.6%
C#CCN(Cc1cc2c(=O)[nH]c(C)nc2cc1Br)c1ccc(C(=O)NCc2cccnc2)cc1,inconclusive: 12.6 µM,–
COc1ccc2nc(-c3cc(OC)c(OC)c(OC)c3)cc(C(=O)NCC(=O)Nc3ccc(C(C)=O)cc3)c2c1,"inconclusive: 39.8 µM [cytotoxic, single point]",–
COc1cc(-c2cc(-c3cccc(O)c3)cnc2N)cc(OC)c1OC,"inconclusive: 25.1 µM [cytotoxic, partial curve, poor fit]",–
Cc1cc(N(C)C)ccc1-c1nc2ccc(-c3nc4ccc(N5CCN(C)CC5)cc4[nH]3)cc2[nH]1,–,inactive: -1.43%

# System: Tov112D
# Assay: as above
# Conditions: Gynecologic cancer cell panel viability, ATPlite luminescence, 48 h; series mostly up to 57.5 µM; activity change, negative = cytotoxicity: at the top concentration
# In short: as §1
row,Structure (SMILES),Potency
1,COc1cccc(-c2cc(F)ccc2C2Cc3nc(N)nc(C)c3C(=O)N2)n1 (stereo unspecified),"inconclusive: 0.282 µM [cytotoxic, full curve]"
2,CN1CCN(c2ccc(OC(F)(F)F)c(Nc3ncc4c(n3)-c3c(c(C(N)=O)nn3CCO)CC4)c2)CC1,active: 0.316 µM
3,O=C(Nc1ccc(Cl)cc1F)c1ccccc1O,"inconclusive: 28.2 µM [cytotoxic, single point]"
4,C[C@@H](N[C@H]1CCCC[C@@H]1NC(=O)c1ccc(Cl)cc1)c1cccc2ccccc12,"inconclusive: 25.1 µM [cytotoxic, single point]"
5,CCN(CC)CCN(Cc1ccc(-c2ccc(C(F)(F)F)cc2)cc1)C(=O)Cn1c(SCc2ccc(F)cc2)nc(=O)c2c1CCC2,active: 35.5 µM
6,CC(=O)Nc1ccc(NC(=S)NC(=O)c2ccc(C(C)(C)C)cc2)cc1,"inconclusive: 3.55 µM [cytotoxic, full curve]"
7,COCCOCCOc1ccc(C2=N[C@@](C)(C(=O)O)CS2)c(O)c1,"inconclusive: 39.8 µM [cytotoxic, partial curve, poor fit]"
8,N#CC(CCCN1CCC(O)(c2ccc(Cl)cc2)CC1)(c1ccccc1)c1ccccc1,"inconclusive: 35.5 µM [cytotoxic, single point]"
9,CC1(C)C2CC(OC3OC(COC4OCC(O)(CO)C4O)C(O)C(O)C3O)C1(C)CC2O (stereo unspecified),"inconclusive: 3.98 µM [cytotoxic, single point]"
10,CCN1CCN(Cc2ccc(NC(=O)c3ccc(C)c(Oc4ccnc5[nH]ccc45)c3)cc2C(F)(F)F)CC1,"inconclusive: 10 µM [cytotoxic, partial curve, poor fit]"
11,C=CC(=O)N1CCC(Oc2cc3c(Nc4ccc(Cl)c(Cl)c4F)ncnc3cc2OC)CC1,"inconclusive: 14.1 µM [cytotoxic, partial curve, poor fit]"
12,NC(=O)c1ccccc1Nc1ccnc(Nc2cccc(O)c2)n1,"inconclusive: 10 µM [cytotoxic, partial curve, poor fit]"
13,O=C(Nc1nc2cc(C(F)(F)F)cc(NC3CC3)n2n1)c1cccnc1,active: 7.94 µM
14,C#CCN(Cc1cc2c(=O)[nH]c(C)nc2cc1Br)c1ccc(C(=O)NCc2cccnc2)cc1,inconclusive: 2 µM
15,COc1ccc2nc(-c3cc(OC)c(OC)c(OC)c3)cc(C(=O)NCC(=O)Nc3ccc(C(C)=O)cc3)c2c1,"inconclusive: 39.8 µM [cytotoxic, single point]"
16,COc1cc(-c2cc(-c3cccc(O)c3)cnc2N)cc(OC)c1OC,"inconclusive: 39.8 µM [cytotoxic, single point]"
